# The campaign covered roughly 310,000 compounds. About 14,000 (4.5%) showed an effect of 50% or more. The effect is printed as a negative number. Some of the results follow.
# Molecular target: human ether-à-go-go-related gene (hERG) potassium channel (human, UniProt Q12809)
# Experiment: primary screen, population patch clamp on CHO cells stably expressing hERG
# 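Note: peak tail current of the secondary pulse compared with the same well before compound.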
# Sequence of human ether-à-go-go-related gene (hERG) potassium channel (Q12809 whole entry, looked up): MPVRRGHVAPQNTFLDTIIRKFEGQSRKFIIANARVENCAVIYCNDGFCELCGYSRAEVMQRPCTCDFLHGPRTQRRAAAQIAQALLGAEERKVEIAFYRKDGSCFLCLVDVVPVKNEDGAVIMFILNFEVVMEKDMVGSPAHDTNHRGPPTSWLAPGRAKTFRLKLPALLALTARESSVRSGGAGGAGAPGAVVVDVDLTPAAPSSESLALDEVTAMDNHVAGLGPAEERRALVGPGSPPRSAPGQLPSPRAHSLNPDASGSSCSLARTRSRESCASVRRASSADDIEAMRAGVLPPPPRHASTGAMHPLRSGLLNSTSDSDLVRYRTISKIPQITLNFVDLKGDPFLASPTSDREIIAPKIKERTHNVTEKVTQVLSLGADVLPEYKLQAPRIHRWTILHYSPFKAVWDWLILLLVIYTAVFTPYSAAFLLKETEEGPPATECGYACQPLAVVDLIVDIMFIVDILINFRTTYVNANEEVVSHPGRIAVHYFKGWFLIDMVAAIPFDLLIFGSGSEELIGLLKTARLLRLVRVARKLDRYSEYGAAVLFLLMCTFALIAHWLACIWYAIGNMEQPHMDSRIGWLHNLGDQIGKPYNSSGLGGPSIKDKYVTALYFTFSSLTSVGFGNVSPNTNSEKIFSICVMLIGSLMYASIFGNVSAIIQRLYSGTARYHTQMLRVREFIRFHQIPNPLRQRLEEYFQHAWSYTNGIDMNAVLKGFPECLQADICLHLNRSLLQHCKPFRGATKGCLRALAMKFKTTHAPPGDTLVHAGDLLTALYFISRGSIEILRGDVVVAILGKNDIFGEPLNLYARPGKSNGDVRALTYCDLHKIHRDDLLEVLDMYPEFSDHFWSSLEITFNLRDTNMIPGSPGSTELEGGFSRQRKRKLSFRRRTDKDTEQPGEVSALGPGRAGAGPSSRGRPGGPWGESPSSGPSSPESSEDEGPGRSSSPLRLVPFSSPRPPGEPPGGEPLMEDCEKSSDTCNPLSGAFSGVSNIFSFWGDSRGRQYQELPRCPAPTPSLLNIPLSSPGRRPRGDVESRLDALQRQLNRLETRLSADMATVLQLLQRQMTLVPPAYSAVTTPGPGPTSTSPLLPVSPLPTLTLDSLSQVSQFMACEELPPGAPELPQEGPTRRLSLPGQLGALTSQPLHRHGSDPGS
row,SMILES,"hERG current change (%, negative = inhibition) at 10uM [%]"
1,COc1ccccc1Oc1c(C)oc2c(CN(C)C)c(O)ccc2c1=O,-1.06
2,CCN1CC=C2C(C#N)=C(N)C(C#N)(C#N)[C@H](c3cccc(OC)c3OC)[C@H]2C1,-6.54
3,CCOc1ccc(N2CC(C(=O)NC(C)C)CC2=O)cc1 (stereo not drawn),3.39
4,O=C(COc1ccc(Cl)cc1Cl)Nc1noc2ccccc12,15
5,CCOc1ccc2nc(NC(=O)c3cccc(-c4cc5ccccc5oc4=O)c3)sc2c1,10
6,COC(=O)COn1c(-n2nc(C)cc2C)nc2ccccc2c1=O,12.6
7,O=c1nc(-c2ccccc2Cl)c2cc(F)ccc2[nH]1,11.1
8,CC(C)C(=O)NC(=S)Nc1ccccc1N1CCN(C(=O)c2ccc(Cl)cc2)CC1,-3.55
9,CN1C(C(=O)N2CCc3ccccc3C2)=CC(c2ccc(F)cc2)=NS1(=O)=O,-3.37
10,Nn1c(SCC(=O)Nc2ccccc2F)nc2ccccc2c1=O,2.62
11,CCCc1cc(C(=O)Nc2sc(C)c(CC)c2C#N)no1,10.3
12,CCCOc1ccc(OCCSc2nnc(N)s2)cc1,12.5
13,COc1ccc(/C=N/NC(=O)c2ccc(N(C)S(=O)(=O)c3ccccc3)cc2)cc1,8.35
14,COc1ccccc1CN1CCCC(CN(CCN(C)C)C(=O)C2CCCC2)C1 (stereo not drawn),8.07
15,Oc1c(Br)cc(Br)cc1CNc1ccccn1,5.43
16,CC(C)N=C1NN=C(c2cccs2)CS1,43.4
17,CCOC(=O)N1CCN(C(=O)c2ccc(N3CC4CC(C3)c3cccc(=O)n3C4)c(NC(=O)c3ccc(F)cc3)c2)CC1 (stereo not drawn),-5.09
18,CS(=O)(=O)c1cnc2c(-c3ccc(F)cc3)cnn2c1N,0.863
19,CCc1nc(NC(=O)Cc2csc(C)n2)sc1C(=O)OC,2.85

row,SMILES,"hERG current change (%, negative = inhibition) at 10uM [%]"
1,COC(=O)c1sccc1NC(=O)c1ccc(Cl)s1,-5.63
2,O=C(c1ccccc1)N1CCN(C(=S)NCCc2ccccc2)CC1,-65.7
3,O=C(NC1CCCCC1)C(c1ccc(F)cc1)N(C(=O)c1csnn1)C1CCCC1 (stereo not drawn),-7.88
4,Cn1ccnc1SCC(=O)Nc1ccc2c(c1)OCCO2,11.4
5,COC(=O)c1ccc(OCC(O)CN2C(=O)c3ccccc3C2=O)cc1 (stereo not drawn),13.6
6,COc1ccc(/C=C\C(=O)NCc2ccc3c(c2)cc(C)n3C)cc1OC,6.06
7,O=[N+]([O-])c1cccc(C2=NCCS2)c1,-21.3
8,Cc1nnc(NC(=O)c2ccc(S(=O)(=O)N3CCCCCC3)cc2)o1,-18.5
9,CC(C)C(=O)Nc1ccc(O)c(-c2csc(N)n2)c1,15.3
10,CCCCOc1cccc(-c2nnc(N)s2)c1,1.12
11,Cc1ccc(CCNC(=O)CC2Oc3ccc(C)cc3NC2=O)cc1 (stereo not drawn),5.18
12,O=c1c2ccc([N+](=O)[O-])cc2ncn1CCOc1ccc(Cl)cc1,-37.5
13,CCc1sc(C(=O)N2CCN(S(C)(=O)=O)CC2)cc1Br,-10.3
14,COc1ccccc1CNC(=O)c1cc(-c2ccccc2)n(Cc2cc(C)no2)n1,-37.2
15,Cc1ccc(-n2ncc3c(SCc4cccc(C)c4)ncnc32)cc1,0.386
16,O=C(Cn1cnc2ccccc2c1=O)OCC(=O)c1ccc2c(c1)OCCO2,12.7
17,Br.CCCCn1c(=N)n(CC(=O)c2ccc([N+](=O)[O-])cc2)c2ccccc21,-71.7
18,Cc1cccc[n+]1C1C(c2ccc([N+](=O)[O-])cc2)C(C#N)=C(C(=C=[N-])C#N)NC1(O)C1CC1 (stereo not drawn),-1.81
19,COc1cc(OC)cc(C(=O)N2CCN(S(C)(=O)=O)CC2)c1,4.56

row,SMILES,"hERG current change (%, negative = inhibition) at 10uM [%]"
1,Cc1nc2sccc2c(=O)n1N,20.5
2,CCN(CC)C(=O)c1csc(Nc2cccc3ccccc23)n1,-16.9
3,O=C(O)CCC(=O)N1CCc2cc(S(=O)(=O)NCc3cccs3)ccc21,8.92
4,CCn1c(SCC(=O)OC(C)C)nnc1-c1ccccc1,4.81
5,O=C(NCc1cc(F)cc(C(F)(F)F)c1)C1CCC(=O)N(C2CCCC2)C1 (stereo not drawn),-14.8
6,Cc1nn(-c2ccc(F)cc2)c(C)c1CN1CCN(CCC(C)C)C(CCO)C1 (stereo not drawn),-36.3
7,Cc1ccc(NC2=NCC(Cc3ccc(Br)cc3)S2)cc1 (stereo not drawn),6.97
8,COC(=O)CNC(=O)COC(=O)C(Cc1ccccc1)NC(=O)c1ccco1 (stereo not drawn),17.9
9,COc1ccc(CNC(=O)CCCC(=O)n2nc(C)c3ccccc32)cc1,3.27
10,CC(C)Cc1nc2sc3c(=O)n(N)cnc3c2c2c1COC(C)(C)C2,4.29
11,C/C(CC(=O)N1CCN(C=O)CC1)=N\NC(=O)c1cccc([N+](=O)[O-])c1,24.1
12,CCOC(=O)c1ccc(NC(=O)c2sc3nc4n(c(=O)c3c2C)CCC4)cc1,8.82
13,O=C(Nc1ccccc1)C(O)C(O)C(=O)Nc1ccccc1 (stereo not drawn),16.8
14,Cc1sc(-c2ccncc2)nc1OC(=O)c1ccccc1,-0.792
15,O=C(Nc1ccc(S(=O)(=O)N2CCOCC2)cc1)c1ccc2c(c1)S(=O)(=O)c1ccccc1C2=O,18.7
16,Cc1cc(Nc2nc(Cl)c(Cl)cc2Cl)n(-c2ccccc2)n1,11.7
17,O=C(CSc1nnc(Cc2ccccc2)o1)Nc1cccc(F)c1,-11.8
18,CC(=O)Cn1ncc(N2CCOCC2)c(Cl)c1=O,4.26
19,COc1cccc(Nc2ncnc3sc(C)cc23)c1.Cl,-8.64

# From article PMC4336329 (PLoS ONE, 2015)
